Test results reported in the supplement of paper PMC8285479.
Structures can show the parent of a compound that is named as a salt. ± gives the standard deviation of the averaged measurements. In all, about 1,900 compounds were measured (“normalised cell viability (NPI; 0 = phenylarsine oxide control, 1 = DMSO control)”: median about 1, lowest 2% from about 0.039 on). This is one part of the list.

Tested on: NCI-H1944
Assay: normalised cell viability (NPI; 0 = phenylarsine oxide control, 1 = DMSO control) (fraction of DMSO control); NCI-H1944 is a non-small cell lung cancer line; higher = more viable cells (less compound toxicity)
Conditions: 6 days
[1] = glucocorticoid arm: hydrocortisone 2.75 uM co-treatment, compound 1 µM
[2] = glucocorticoid arm: hydrocortisone 2.75 uM co-treatment, compound 5 µM
[3] = glucocorticoid arm: hydrocortisone 2.75 uM pre-treated 2 days and continued, compound 1 µM
[4] = glucocorticoid arm: hydrocortisone 2.75 uM pre-treated 2 days and continued, compound 5 µM
[5] = glucocorticoid arm: vehicle, compound 1 µM
[6] = glucocorticoid arm: vehicle, compound 5 µM
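Further: CTB read-out in 384-well plates, mean of triplicate wells, normalised per plate against 1 µM phenylarsine oxide and 0.1% DMSO, compounds added 24 h after seeding.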

## NCCCNCCCCNCCCN [Spermine tetrahydrochloride]
[1]
  normalised cell viability: 0.998 ± 0.0017
[2]
  normalised cell viability: 0.996 ± 0.021
[3]
  normalised cell viability: 0.879 ± 0.21
[4]
  normalised cell viability: 0.98 ± 0.014
[5]
  normalised cell viability: 1.006 ± 0.0075
[6]
  normalised cell viability: 0.486 ± 0.46

## CN(C)C/C=C(/c1ccc(Br)cc1)c1cccnc1 [Zimelidine dihydrochloride]
[1]
  normalised cell viability: 1.01 ± 0.011
[2]
  normalised cell viability: 0.992 ± 0.016
[3]
  normalised cell viability: 1 ± 0.022
[4]
  normalised cell viability: 1.02 ± 0.022
[5]
  normalised cell viability: 1.017 ± 0.0058
[6]
  normalised cell viability: 1.01 ± 0.015

## C[S+]([O-])c1ccc(-c2nc(-c3ccc(F)cc3)c(-c3ccncc3)[nH]2)cc1 (centres undefined)
[1]
  normalised cell viability: 0.894 ± 0.017
[2]
  normalised cell viability: 0.905 ± 0.027
[3]
  normalised cell viability: 0.8577 ± 0.004
[4]
  normalised cell viability: 0.868 ± 0.018
[5]
  normalised cell viability: 1.003 ± 0.0058
[6]
  normalised cell viability: 1.023 ± 0.0058

## COc1cc2c(Oc3ccc(NC(=O)C4(C(=O)Nc5ccc(F)cc5)CC4)cc3F)ccnc2cc1OCCCN1CCOCC1
[1]
  normalised cell viability: 0.877 ± 0.019
[2]
  normalised cell viability: 0.369 ± 0.015
[3]
  normalised cell viability: 0.902 ± 0.026
[4]
  normalised cell viability: 0.464 ± 0.014
[5]
  normalised cell viability: 0.8107 ± 0.0061
[6]
  normalised cell viability: 0.185 ± 0.0057

## COc1cc(N2CCC(N(C)C)CC2)ccc1Nc1ncc(Cl)c(Nc2ccccc2P(C)(C)=O)n1
[1]
  normalised cell viability: 0.424 ± 0.017
[2]
  normalised cell viability: 0.287 ± 0.046
[3]
  normalised cell viability: 0.478 ± 0.024
[4]
  normalised cell viability: 0.396 ± 0.04
[5]
  normalised cell viability: 0.696 ± 0.042
[6]
  normalised cell viability: 0.113 ± 0.019

## COc1ccccc1Oc1c(NS(=O)(=O)c2ccc(C(C)(C)C)cc2)nc(-c2ncccn2)nc1OCCO [Bosentan Hydrate]
[1]
  normalised cell viability: 1.005 ± 0.0087
[2]
  normalised cell viability: 0.988 ± 0.022
[3]
  normalised cell viability: 0.984 ± 0.038
[4]
  normalised cell viability: 0.998 ± 0.011
[5]
  normalised cell viability: 0.983 ± 0.014
[6]
  normalised cell viability: 0.996 ± 0.014

## COc1ccccc1Oc1c(NS(=O)(=O)c2ccc(C(C)(C)C)cc2)nc(-c2ncccn2)nc1OCCO [Bosentan]
[1]
  normalised cell viability: 1.001 ± 0.0085
[2]
  normalised cell viability: 1.03 ± 0.01
[3]
  normalised cell viability: 0.989 ± 0.046
[4]
  normalised cell viability: 1.04 ± 0.015
[5]
  normalised cell viability: 1.003 ± 0.0058
[6]
  normalised cell viability: 0.9967 ± 0.0011

## CN(C)CCC=C1c2ccccc2COc2ccccc21 [Doxepin hydrochloride]
[1]
  normalised cell viability: 1.001 ± 0.0086
[2]
  normalised cell viability: 0.962 ± 0.025
[3]
  normalised cell viability: 1.006 ± 0.0075
[4]
  normalised cell viability: 0.999 ± 0.011
[5]
  normalised cell viability: 0.991 ± 0.0036
[6]
  normalised cell viability: 0.989 ± 0.009

## CC(C)[N+](C)(CCOC(=O)C1c2ccccc2Oc2ccccc21)C(C)C [Propantheline bromide]
[1]
  normalised cell viability: 1 ± 0.0084
[2]
  normalised cell viability: 1.005 ± 0.0087
[3]
  normalised cell viability: 0.874 ± 0.22
[4]
  normalised cell viability: 0.987 ± 0.011
[5]
  normalised cell viability: 0.9883 ± 0.0068
[6]
  normalised cell viability: 0.979 ± 0.011

## CN1CCC[C@@H]1Cc1c[nH]c2ccc(CCS(=O)(=O)c3ccccc3)cc12 [Eletriptan HBr]
[1]
  normalised cell viability: 1.013 ± 0.0058
[2]
  normalised cell viability: 1.03 ± 0.015
[3]
  normalised cell viability: 1.01 ± 0.01
[4]
  normalised cell viability: 1.02 ± 0.021
[5]
  normalised cell viability: 1.002 ± 0.0067
[6]
  normalised cell viability: 1.002 ± 0.0072

## CO[C@H](C(=O)[C@@H](O)[C@@H](C)O)[C@@H]1Cc2cc3cc(O[C@H]4C[C@@H](O[C@H]5C[C@@H](O)[C@H](O)[C@@H](C)O5)[C@H](O)[C@@H](C)O4)c(C)c(O)c3c(O)c2C(=O)[C@H]1O[C@H]1C[C@@H](O[C@H]2C[C@@H](O[C@H]3C[C@](C)(O)[C@H](O)[C@@H](C)O3)[C@@H](O)[C@@H](C)O2)[C@H](O)[C@@H](C)O1 [Plicamycin]
[1]
  normalised cell viability: 0.0675 ± 0.0023
[2]
  normalised cell viability: 0.0276 ± 0.0011
[3]
  normalised cell viability: 0.102 ± 0.0097
[4]
  normalised cell viability: 0.0631 ± 0.0043
[5]
  normalised cell viability: 0.0202 ± 0.0011
[6]
  normalised cell viability: 0.011 ± 0.0021

## CCN(c1nc(N)c(C(=O)NC(=N)N)nc1Cl)C(C)C [5-(N-Ethyl-N-isopropyl)amiloride]
[1]
  normalised cell viability: 1 ± 0.016
[2]
  normalised cell viability: 1.01 ± 0.012
[3]
  normalised cell viability: 0.989 ± 0.022
[4]
  normalised cell viability: 0.9925 ± 0.0092
[5]
  normalised cell viability: 1 ± 0.014
[6]
  normalised cell viability: 1.05 ± 0.046

## O=C(O)Cc1c[nH]c2ccc(O)cc12 [5-Hydroxyindolacetic acid]
[1]
  normalised cell viability: 0.9993 ± 0.0011
[2]
  normalised cell viability: 0.999 ± 0.011
[3]
  normalised cell viability: 1.02 ± 0.041
[4]
  normalised cell viability: 0.99 ± 0.0036
[5]
  normalised cell viability: 1.01 ± 0.01
[6]
  normalised cell viability: 1.013 ± 0.0058

## Cn1c(=O)c2[nH]c(-c3ccccc3)nc2n(C)c1=O [1,3-Dimethyl-8-phenylxanthine]
[1]
  normalised cell viability: 1.02
[2]
  normalised cell viability: 1.05 ± 0.036
[3]
  normalised cell viability: 1.01 ± 0.014
[4]
  normalised cell viability: 0.962 ± 0.12
[5]
  normalised cell viability: 1.007 ± 0.0058
[6]
  normalised cell viability: 1.02 ± 0.011

## C#Cc1cccc(Nc2ncnc3cc(OCCOC)c(OCCOC)cc23)c1 [Erlotinib HCl]
[1]
  normalised cell viability: 0.927 ± 0.035
[2]
  normalised cell viability: 0.784 ± 0.07
[3]
  normalised cell viability: 0.905 ± 0.016
[4]
  normalised cell viability: 0.801 ± 0.013
[5]
  normalised cell viability: 0.926 ± 0.015
[6]
  normalised cell viability: 0.741 ± 0.035

## C#Cc1cccc(Nc2ncnc3cc(OCCOC)c(OCCOC)cc23)c1
[1]
  normalised cell viability: 1.001 ± 0.0079
[2]
  normalised cell viability: 0.961 ± 0.02
[3]
  normalised cell viability: 1.004 ± 0.01
[4]
  normalised cell viability: 0.958 ± 0.033
[5]
  normalised cell viability: 0.979 ± 0.016
[6]
  normalised cell viability: 0.936 ± 0.015

## COc1ccc(Cn2ccc3ccc(C(=O)NO)cc32)cc1
[1]
  normalised cell viability: 0.959 ± 0.041
[2]
  normalised cell viability: 1.01 ± 0.029
[3]
  normalised cell viability: 0.923 ± 0.12
[4]
  normalised cell viability: 1.04 ± 0.04
[5]
  normalised cell viability: 0.9977 ± 0.004
[6]
  normalised cell viability: 1.002 ± 0.0076

## NC(=O)c1cnc(N[C@@H]2CCCC[C@@H]2N)nc1Nc1cccc(-n2nccn2)c1
[1]
  normalised cell viability: 0.907 ± 0.012
[2]
  normalised cell viability: 0.589 ± 0.023
[3]
  normalised cell viability: 0.894 ± 0.0098
[4]
  normalised cell viability: 0.716 ± 0.098
[5]
  normalised cell viability: 0.923 ± 0.024
[6]
  normalised cell viability: 0.789 ± 0.043

## CN[C@H](CC(=O)O)C(=O)O [N-Methyl-D-aspartic acid]
[1]
  normalised cell viability: 0.9943 ± 0.0057
[2]
  normalised cell viability: 0.991 ± 0.025
[3]
  normalised cell viability: 1 ± 0.019
[4]
  normalised cell viability: 1.02 ± 0.054
[5]
  normalised cell viability: 0.9787 ± 0.0067
[6]
  normalised cell viability: 0.989 ± 0.018

## CN(N=O)C(=O)N[C@@H]1[C@@H](O)[C@H](O)[C@@H](CO)O[C@@H]1O [Streptozocin]
[1]
  normalised cell viability: 1 ± 0.014
[2]
  normalised cell viability: 1.03 ± 0.015
[3]
  normalised cell viability: 1.001 ± 0.0081
[4]
  normalised cell viability: 1.04 ± 0.01
[5]
  normalised cell viability: 0.9943 ± 0.0051
[6]
  normalised cell viability: 1

## Cc1ccc(-c2nn(C(C)(C)C)c3ncnc(N)c23)cc1
[1]
  normalised cell viability: 0.818 ± 0.029
[2]
  normalised cell viability: 0.87 ± 0.037
[3]
  normalised cell viability: 0.795 ± 0.042
[4]
  normalised cell viability: 0.901 ± 0.059
[5]
  normalised cell viability: 0.96 ± 0.018
[6]
  normalised cell viability: 0.996 ± 0.013

## Cc1c(-c2ccccc2)oc2c(C(=O)OCCN3CCCCC3)cccc2c1=O [Flavoxate HCl]
[1]
  normalised cell viability: 1.023 ± 0.0058
[2]
  normalised cell viability: 1.02 ± 0.027
[3]
  normalised cell viability: 1.03
[4]
  normalised cell viability: 1.03 ± 0.01
[5]
  normalised cell viability: 0.9983 ± 0.0015
[6]
  normalised cell viability: 0.9933 ± 0.0021

## OC[C@H]1NC[C@H](O)[C@@H](O)[C@@H]1O [1-Deoxynojirimycin hydrochloride]
[1]
  normalised cell viability: 1.01 ± 0.011
[2]
  normalised cell viability: 0.984 ± 0.025
[3]
  normalised cell viability: 0.995 ± 0.015
[4]
  normalised cell viability: 0.969 ± 0.0066
[5]
  normalised cell viability: 1.003 ± 0.0058
[6]
  normalised cell viability: 0.991 ± 0.013

## NC(=O)c1cccc(-c2cc(Nc3ccc(OC(F)(F)F)cc3)ncn2)c1
[1]
  normalised cell viability: 1.01 ± 0.017
[2]
  normalised cell viability: 0.982 ± 0.012
[3]
  normalised cell viability: 1.01 ± 0.016
[4]
  normalised cell viability: 0.9723 ± 0.0059
[5]
  normalised cell viability: 0.9973 ± 0.0015
[6]
  normalised cell viability: 0.997 ± 0.015
